This is one part of the list.
tested on: PfSIP2 AP2 domain 1 (GST-tagged); experiment: gcPBM binding intensity (ln(normalized median fluorescence intensity)); higher = stronger DNA binding
Outline: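 For binding intensity, the highest Masliner-normalised natural-log median intensity across replicate spots of either probe orientation was taken. Protein bound to the array was stained with Alexa488 anti-GST antibody and scanned at 488 nm. The protein, GST-tagged P. falciparum DNA-binding domains from E. coli at about 25 μg on average, had been applied for 1 h to an Agilent 4 × 180k array of primer-extended double-stranded 36-bp intergenic genomic probes and negative controls.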

First: CTTAAAATGATAATATGTACACATAAATAATATATA [XGTACX_site8330]
Second: TTTTTTGACATTCCTTTTAATAATTAACGAAAGGCA [GTGCAC_negctrl_site377]
The “gcPBM binding intensity (ln)” value of the first is higher: 7.23 for the first, 6.92 for the second.

First: TATATAATATTACGTTGTACACTTTAATCTCCCTTC [XGTACX_site5577]
Second: ACCATTTGAAAATTCACACACTTTATTTTGTTATAT [CACACA_site5976]
The “gcPBM binding intensity (ln)” value of the first is lower: 7.02 for the first, 7.25 for the second.

First: ACTAATATGCAATATTGTACATATATATAGAAATAT [XGTACX_site5273]
Second: TATAATCAATGCCAAAGTACATATTAATATATTTAT [XGTACX_site4558]
The “gcPBM binding intensity (ln)” value of the first is higher: 7 for the first, 6.95 for the second.

Going from “AATATATCGCATAGTTGTACAGAATTTTTACTTTTA [XGTACX_site8192]” to “ATTGAAAAATAAAAATGTACACATGTAGCATACCAT [XGTACX_site3275]”, the “gcPBM binding intensity (ln)” value rises from 7 to 7.19.

First: ATATATATATATATATGTACACATATATTTCTTTTC [XGTACX_site3443]
Second: ATAAAATTTTATATGGGTACATAATATAATATATAT [XGTACX_site8160]
The “gcPBM binding intensity (ln)” value of the first is higher: 9.58 for the first, 7.19 for the second.

Compared with ATTCCTGGACCGTTCATGCACTTGCAGAACGTCCAT, “TTTATGAAATGTTGCACACAAAAAACAACATGTTTT [CACACA_site1440]” is lower in “gcPBM binding intensity (ln)” value: 7.72 for the first, 7.37 for the second.

Going from “TTTAAAAATTAATTCTGTACACATTTTTATTATATT [XGTACX_site4212]” to “AAATGATATAAATTATAAAATGGATTTTTTCCATTG [CACACA_negctrl_site420]”, the “gcPBM binding intensity (ln)” value falls from 6.99 to 6.58.

Compared with “AAAAAAAAAAAAAGTGCACACGATTTAAGGCCTATA [CACACA_site2823]”, “CTCTATATATTATTATGTACTAAATGTATGTATGTA [XGTACX_site7151]” is lower in “gcPBM binding intensity (ln)” value: 10.9 for the first, 7.23 for the second.

Going from “TTCTTCTGTTTTATTACACACCATTTTGTGTCTACA [CACACA_site8643]” to “TAACACACTAAGAAAAGTACTGATTAATATAATTTT [XGTACX_site5536]”, the “gcPBM binding intensity (ln)” value falls from 7.31 to 6.91.

Compared with “AAAACACAATTTATTACACACATATATTATATATTA [CACACA_site1420]”, “ATGAATGAATAAAGAAGTACGGAAATATTAACAAAA [XGTACX_site4695]” is higher in “gcPBM binding intensity (ln)” value: 6.98 for the first, 7.26 for the second.

Compared with “ATAACATACATAACAACACACAATATTTATCTGTAT [CACACA_site4279]”, “TTCATTCAAATCCAAGCATGCTTTATTAAAAAATTA [TGCATGCA_site567]” is lower in “gcPBM binding intensity (ln)” value: 7.09 for the first, 6.96 for the second.

First: ATATATAATTCCCAAGTGCATTTATTTTAATTATTA
Second: TACGCCTATAACGGCTGTACACCTTACTTTTTTTAA [XGTACX_site6818]
The “gcPBM binding intensity (ln)” value of the first is higher: 8.9 for the first, 6.62 for the second.

Going from “TATGATTTTTATATATGTACGTATGGTGTTTTACAA [XGTACX_site6100]” to “AATAAATTTCAAAATTGTACTCATTTCCTTTCCCAA [XGTACX_site5887]”, the “gcPBM binding intensity (ln)” value falls from 7.19 to 6.83.

Compared with “TGTGAAATAAAATTTGTACACACATATATATATATA [CACACA_site8093]”, “AAAAAAAAAATACATACACACACACCCACCCATATA [CACACA_site9187]” is lower in “gcPBM binding intensity (ln)” value: 9.6 for the first, 7.15 for the second.

Going from “ATTAATCCAAATGAATGTACTTAATAATGTAATTAT [XGTACX_site8946]” to “TGTCCCCCTTTCTATGCACACTTTAAATTATTCAAA [CACACA_site4200]”, the “gcPBM binding intensity (ln)” value rises from 6.87 to 8.53.

First: TTTATTTTACAAAAAAGTACAAGAAGAAATATCAAT [XGTACX_site7812]
Second: ATATTTAGAATGTTCCTACACACCAAATTTAAGTGG [CACACA_site2346]
The “gcPBM binding intensity (ln)” value of the first is higher: 7.5 for the first, 6.9 for the second.

Compared with “TATTAAAAGTAAAAAACACACATGGATAAATACATA [CACACA_site6048]”, “TTATATATAAATGAAAGTACAAAACAGGAAAGAATA [XGTACX_site1076]” is higher in “gcPBM binding intensity (ln)” value: 6.87 for the first, 7.64 for the second.

Compared with “AATGATATATTATAAACACACAAAGATGGATATATA [CACACA_site7349]”, “ATATATAATATATGTGGTACGCAAAATATTATATTA [XGTACX_site4969]” is higher in “gcPBM binding intensity (ln)” value: 6.88 for the first, 7.07 for the second.

First: AATACACGCAAACACACACACACACCCACATATATA [CACACA_site638]
Second: TCAATATACCAAAAATGTACAAAAAATAAACAATAT [XGTACX_site8251]
The “gcPBM binding intensity (ln)” value of the first is higher: 7.27 for the first, 7.21 for the second.

Compared with “TTTATATTATAATATAATAATGATCTTAATTTTTTT [XGTACX_negctrl_site100]”, “GAACATTTCACATGGTGTACTCTCTTTTTCAAATAA [XGTACX_site1632]” is higher in “gcPBM binding intensity (ln)” value: 6.77 for the first, 6.87 for the second.

First: ATGAGTATACTAAGAACACACAAGTTACTTGGTGTT [CACACA_site4981]
Second: TAAAAAAAAAAAATGTGTACATATTATATATATCTT [XGTACX_site2615]
The “gcPBM binding intensity (ln)” value of the first is lower: 6.62 for the first, 7.14 for the second.

Compared with “TATAACAAGTAATGTTGTACATTATATTATGTAATA [XGTACX_site2769]”, “TTTTTTATTATTATGTGTACGAATATGTGCATATAA [XGTACX_site1364]” is higher in “gcPBM binding intensity (ln)” value: 6.8 for the first, 7.31 for the second.

First: TTTTTTCTCTATATATGTACATATAAAAAATATATC [XGTACX_site6382]
Second: GTTACACAAACAAACACACACACACGCACGCACAAA [CACACA_site7191]
The “gcPBM binding intensity (ln)” value of the first is lower: 7.16 for the first, 7.54 for the second.

Going from “CATATTATTTAAACATGTACTCACATATAAATATAA [XGTACX_site6096]” to “TGTTTATAAATATAAAAAAATATATATATATATTAT [GTGCAC_negctrl_site247]”, the “gcPBM binding intensity (ln)” value falls from 7.15 to 7.05.

Going from “ATTTTATAATTTATATCACACACATATATATATAGT [CACACA_site7885]” to “CAAAATTAATAAGTCACACACACATCTATAATATAT [CACACA_site6519]”, the “gcPBM binding intensity (ln)” value falls from 7.16 to 6.78.

Going from “TTCTTTATTTTTTCTACACACATTAGATATTCAAAG [CACACA_site7624]” to “ACCATAACATGAATTACAGGAATTGAAAATGTTCCA [CACACA_negctrl_site649]”, the “gcPBM binding intensity (ln)” value falls from 7.53 to 6.8.

Compared with “TATATATATATATTCACACATAAGATGAATAAAGTG [CACACA_site4225]”, “GGTTACATTTTATTTTGTACATAAAAATTTTTATTT [XGTACX_site218]” is lower in “gcPBM binding intensity (ln)” value: 9.21 for the first, 7.43 for the second.

Going from GTATTATATATAAAAGTGCATATTTTTTTCCCTTAC to “AAATAATTAAAAAAAAGTACACATGTGACTACATAT [XGTACX_site8767]”, the “gcPBM binding intensity (ln)” value falls from 8.93 to 7.09.

With “TCATCATATTATATATGTACATATATAATAATTTAT [XGTACX_site1625]” the “gcPBM binding intensity (ln)” value was 7.31.

Source: the supplement of paper PMC11417369
